Source: patent US12551573B2, “Compositions and methods for the targeting of PCSK9” (Scribe Therapeutics Inc., priority 2022, dated 2026)

B1: DOMAIN_17062 (protein, listed as Rhinopithecus roxellana)
chain: VHGSVTFRDVAIDFSQEEWECLQPEQRTLYRDVMLENYSHLISLGSSISKPDVITLLEQEKEPWMVVRKETSRWYPDLESK
B2: DOMAIN_17105 (protein, listed as Macaca mulatta)
chain: B1 chain with E25D, T28N, M65I
B3: DOMAIN_17108 (protein)
chain: MAASQESLTFKDVSVDFSLEEWECLDPAQRKLYSDVMLENYSNLVSLGLVVSKPGLVTFLEQMQEVWDVSRKKSISTPPGR
modifications: Phyllostomus discolor
B4: DOMAIN_17134 (protein, listed as Panthera pardus)
chain: AQESLTLEDVAVDFSREEWRLLAPAQKDLYRDVMLENFRNLVSVGHQASKPDVLAKLERGEEPWAIEEEVRSGTSPETGKV
B5: DOMAIN_17139 (protein)
chain: PQKSVTFEDVAVYFTQTEWDGLSPAQRALYRDVMLENYGNVASLGFSLLKPAVISQLEGAGELEGPSPLVAGTEIGPQGLW
modifications: Ursus arctos
B6: DOMAIN_17153 (protein)
chain: LLTFEDVAVSFSEEEWKLLDPSQKILYNDVMQENYETVISLGLKLKNDTGNDQPISLSALEIQASGGKVLRKARMKVAQKT
modifications: Ursus arctos
B7: DOMAIN_17177 (protein, listed as Physeter macrocephalus)
chain: VQESVTFKDVAVLFTQDEWAQLSPAQRALYRDVMLENYSNLVSLGLLGPKPDVFSQLGKGEEWMPEDSLGGFCLDWMTTPV
B8: DOMAIN_17202 (protein)
chain: TQGSLSFRDVTVGFTQEEWQHLDPAQRSLYRDVMLENYSHLVSLGYSISKPEVILKLEQGEEPWILEEEFPSQSDLELIKS
modifications: Ursus arctos
B9: DOMAIN_17236 (protein, listed as Rhinolophus ferrumequinum)
chain: WKEELSFEDVAVNFTREEWNKLDWTQRDLYRDVMLENYRNMILLGFQFPKPEVICQLEQWEDPWILDLPRAGTRKASSNAC
B10: DOMAIN_17241 (protein)
chain: MGRLMFQDVAIDFTQEEWECLDLSQRDLYRDVMLETYGNLASLGLVVSKPDLVTFLEQMKNPWDVRRTDTKATYPAVSSHN
modifications: Muntiacus muntjak
B11: DOMAIN_17278 (protein, listed as Tursiops truncatus)
chain: SKAPVTFGDLAIYFSQEEWEWLSPIQKDLYEDVMLENYQNLVSLGLSFRRPNVITLLEKGKAPWMVEPVKRRRGLDLGSKC
B12: DOMAIN_17279 (protein)
chain: KPLAVRFADVAVYFSPEEWGYLRPAQRALYRDVMQETYGHLGALGFPGPKPALISWMEQESEAWSPAAQDPEEGENLGGAL
modifications: Bison bison
B13: DOMAIN_17333 (protein, listed as Camelus dromedarius)
chain: AQETVTFKDVAVDFTQEEWGQLDPVQRTLYRDVMLETYGHLLSVGNQIAKPEVISLLEQGEEPWSMDRVYPPQRTCPEWMR
B14: DOMAIN_17340 (protein, listed as Leptonychotes weddellii)
chain: ARASLSFEDVAVGFSWEEWQLLAPSQKDLYREVMLENYRNLVSVGYQASKPDSLFHLEQGEPPWTVVGAAQSQTCQEIWEI
B15: DOMAIN_28640 (protein, listed as Colinus virginianus)
chain: GEEPVNFEEVAVYFSREEWALLDPAQRALYRDVMLETYECVASLAPLPAPKPMVISLLEEGEEPWIPDVGSPEAVAGDVSP
B16: DOMAIN_17383 (protein, listed as Leptonychotes weddellii)
chain: PQESVTFKDIAVDFTQEEWALLDTSQRKLYRDVMLENISHLVSVGYHLCKSDVISQLEQGVELWREGRGFPQGLNPDRKSG
B17: DOMAIN_17412 (protein)
chain: SQSPLTFGDVAVEFSGEEWAWLDSAQRSLHRSVMLENYRNLASLGLCLSKPEMISSLEQRKEPWAVKRKSTGGECADSQTL
modifications: Ovis aries
B18: DOMAIN_17421 (protein)
chain: AQESVMFSDVSIDFSQEEWECLNDDQRDLYRDVMLENYSHLVSMGHSVSKPDVISFLEQGKEPWLVDRELTRDQWPVLESR
modifications: Vulpes vulpes
B19: DOMAIN_17483 (protein)
chain: MEGLVMFQDLFIDFSQEEWECLDTAQKDLYRDVMMENYSSLVSLGLCIPKPDVISLLEQGKEPWMVSRDVLGGWCPDSEFR
modifications: Cercocebus atys
B20: DOMAIN_17509 (protein, listed as Physeter macrocephalus)
chain: YQGLVSFEDVAVNFTWEEWQDLDAAQRTLYRDVMLENYSSLVSLGHCITKPEVIIKLEQGAAPWTVKETPDQGSPDVQIVD
B21: DOMAIN_17516 (protein, listed as Monodelphis domestica)
chain: SQGSITFKDVAVDFTQEEWCLLDHSQKALHLEVMLENVQNLLSVGLPVPRENFISCFQQGKAPYLLQQNDPKSSSPEAETN
B22: DOMAIN_28803 (protein, listed as Monodelphis domestica)
chain: SQESVTFQDVTVDFTQEEWCMLDCSQKKLYREVMLENVQNLLSVGLPVPRENLLSSCQQGDSPWLLEQKGTRIFRADAEIC
B23: DOMAIN_17525 (protein, listed as Myotis davidii)
chain: SMGSDLFRDVAVVFSREEWERLAPAQRDLYRDVMLETYSHLRSLDLAISKPDVIAFLEQGEEPWRAEEAARDGLCPVDWEC
B24: DOMAIN_17547 (protein, listed as Neomonachus schauinslandi)
chain: FEESVTFEDVAVYFSENEWTGLAPAQRVLYRDVMLENYGAVASLAFPFPKPALISQLERGEAPWCKAPQGALDGGGPRGIS
B25: DOMAIN_17574 (protein)
chain: MAQVTFSDVAIDFSHEEWAWLDSAQRDLYKDVMVQNYENLVSVGLSVTKPYVITLLEDGKEPWMVEKKLSKGMIPDWESRW
modifications: Cercocebus atys
B26: DOMAIN_17632 (protein, listed as Monodelphis domestica)
chain: PQAAMTFQDVAVDFTREEWRLLEPPQKELYWEVMLENYRNLVCLGLTVSKPDVISQLEQGEAPWRLEGGSARGRCLDWGMR
B27: DOMAIN_17658 (protein, listed as Monodelphis domestica)
chain: PQELVTFQDVAVYFTPEEVRYLDSYQKALYKDVMLENYGNMASLGFPLSKPVLISQLERGEEPWAMDPLVAKERKTRRGTS

Tested on: HBEGF locus
Format: cell-based, human
Details: high-throughput screen of dXR repression of the HBEGF gene
[1] = abundance of each domain in the library before and after diphtheria toxin selection, HEK293T cells
[2] = change in abundance of each domain in the library before and after diphtheria toxin selection

Molecule | Log2 (fold change) [1] | Log2 (fold change) [2]
B1 | 3.2594 | –
B2 | 2.637 | –
B3 | 2.4499 | –
B4 | 3.2502 | –
B5 | 4.0326 | –
B6 | 2.1759 | –
B7 | 3.2446 | –
B8 | 2.6589 | –
B9 | 2.7166 | –
B10 | 2.2217 | –
B11 | 3.4898 | –
B12 | 3.591 | –
B13 | 2.8765 | –
B14 | 3.1536 | –
B15 | – | 3.624
B16 | 2.953 | –
B17 | 4.9319 | –
B18 | 3.3129 | –
B19 | 3.5742 | –
B20 | 3.438 | –
B21 | 3.1523 | –
B22 | – | 3.0697
B23 | 3.4986 | –
B24 | 3.2455 | –
B25 | 3.4893 | –
B26 | 3.3689 | –
B27 | 3.8781 | –

Where a chain is given by its changes, count along the chain named. Read-outs that look alike come from different tables or passages of the source.
